# PubChem BioAssay AID504444 (National Center for Advancing Translational Sciences (NCATS), 2011)
# Among all 360,000 compounds or so, about 7,500 (2.1%) were called active. Not shown: some 20% with an inconclusive outcome. Calls come from the whole dose curve; as a rule, active = well fitted inhibition curve with a large enough effect; inconclusive = small, poorly fitted or top-dose-only effect, or effect the other way; inactive = flat fitted curve, though single readings scatter. This is a selection; strong and weak results do not stand in their true shares.
# Assay: Nrf2 qHTS screen for inhibitors; note: nearly all actives have a fitted effect of over 60% in size
# Conditions: A549 ARE-Fluc reporter, luciferase luminescence, 18-24 h; series mostly up to 46 µM; activity change, negative = inhibition: at the top concentration
# Summary of the method: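 In this cell-based qHTS, ARE-driven firefly luciferase in A549 cells reports Nrf2 activity; the luminescent signal after BugLite lysis is the measured value, with a prior CellTiter-Fluor read for cell health.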
# % is set by controls: 0 for no effect and ±100 for the full control effect; potency is the fitted concentration of half-maximal effect.
SMILES,"activity change, negative = inhibition",Potency
C=CCC[C@H](Cc1ccc(F)cc1)C(=O)OC[C@H](C)NC(=O)[C@@H](CC=C)CC(=O)N[C@H](CO)Cc1ccccc1,inactive: -27.4%,–
COC(=O)c1cc(S(=O)(=O)NCC2CCN(Cc3ccc(C)cc3)CC2)cn1C,inactive: -4.11%,–
COC(=O)c1ccccc1NC(=O)CCCN1C(=O)C(c2ccccc2)Oc2cccnc21 (stereo unspecified),inactive: -15.4%,–
C[C@H](NC(=O)[C@@H]1Cc2ccccc2CN1C(=O)OC(C)(C)C)C(=O)NC1CCCC1,inactive: -6.96%,–
Cc1ccccc1OCC(=O)Nc1nnc(S(=O)(=O)N2CCCC2)s1,inactive: -2.06%,–
C[C@H]1CC[C@@]2(O[C@H](CCO)C[C@H](O)[C@H]2O)O1,inactive: 7.61%,–
COC(=O)[C@@]12CCCCN1[C@H](c1ccc(-c3ccc(OC)cc3)cc1)[C@H]1C(=O)N(C)C(=O)[C@H]12,inactive: -11%,–
CCN(CC)S(=O)(=O)c1ccc(OC)c(-n2cnnn2)c1,inactive: -1.98%,–
Cc1ccc(C)c(NC(=O)CN(C)C(=O)c2cccc(S(=O)(=O)N3CCN(Cc4ccccc4)CC3)c2)c1,–,active: 11.6 µM
Cc1c(C)n(C)c2ccc(C(=O)NCCCN3CCCCC3C)cc12 (stereo unspecified),inactive: 4.67%,–
Cc1cccc(N2CCN(C(=O)c3ccccc3SCC(=O)N3CCCC3)CC2)c1C,–,active: 23.1 µM
CCn1cc(CCC(=O)NCc2ccccc2OC)c2ccccc21,inactive: 10.4%,–
CCOCCCNC(=O)C(Cc1ccccc1)NS(=O)(=O)c1ccc2c(c1)c(=O)n(C)c(=O)n2C (stereo unspecified),inactive: 5.6%,–
O=C(O)/C=C/c1cn(-c2ccccc2)nc1-c1cc2ccccc2o1,inactive: -16.9%,–
CCOC(=O)c1ccc(-n2c(C)nc3c(cnn3-c3ccc(Cl)cc3)c2=O)cc1,inactive: 0.309%,–
N#Cc1nc(-c2ccc(OCc3ccccc3)cc2)oc1N1CCC(C(N)=O)CC1,inactive: 11.9%,–
Cc1nc2ccccc2nc(=O)c1NNc1ccccc1,inactive: 7.47%,–
Cn1nnnc1Sc1ncnc2scc(-c3ccc(C(F)(F)F)cc3)c12,inactive: -117%,–
COc1ccccc1CNC(=O)CN1C(=O)COc2ccc(S(=O)(=O)NC3CCCC3)cc21,inactive: -24.3%,–
CCOc1ccc(/C=C/[N+](=O)[O-])c2ccccc12,–,active: 25.9 µM
CC(C)C[C@H](CO)N(Cc1ccccc1)S(=O)(=O)N(Cc1ccccc1)[C@@H](CO)CC(C)C,inactive: -132%,–
CCc1cccc(C)c1NC(=O)Cn1nc(C)n2cccc2c1=O,inactive: -1.85%,–
CCOC(=O)C(C)Sc1ccc2nnc(CCNS(=O)(=O)c3ccc(C)cc3)n2n1 (stereo unspecified),inactive: -3.81%,–

SMILES,"activity change, negative = inhibition",Potency
COc1ccc(S(=O)(=O)Nc2c(C)nc3nc[nH]n3c2=O)cc1,inactive: -2.67%,–
COc1ccc2c(c1)cc1c(=O)n(CC(=O)NC(C)CCc3ccccc3)nc(C)n12 (stereo unspecified),inactive: 3.07%,–
c1ccc(CNc2nc(-c3ccccn3)nc3ccccc23)cc1,–,active: 16.4 µM
Cc1ccc(-n2ncc3c(Nc4cccc(C(=O)O)c4)ncnc32)cc1,inactive: 27.3%,–
CCc1ccc(NC(=O)CSc2nnc(CC)c(CC)n2)cc1,inactive: 11%,–
CCc1ccc(NC(=O)C2CCCN(S(=O)(=O)c3ccc4[nH]c(=O)ccc4c3)C2)cc1 (stereo unspecified),inactive: -23.5%,–
COC(=O)[C@H](CC(C)C)NS(=O)(=O)N(Cc1ccccc1)[C@@H](CC(C)C)C(=O)OC,inactive: -13.7%,–
CC(C)c1ccc(NC(=O)Cn2nnc(C(=O)NCc3ccc4c(c3)OCO4)c2N)cc1,inactive: 7.81%,–
O=C(Oc1cccnc1)c1ccc([N+](=O)[O-])cc1Cl,–,active: 1.03 µM
Cc1ccccc1NC(=O)CSc1ccc(-c2ccccn2)nn1,inactive: -0.722%,–
C/C=C(/C)C(=O)O[C@@H]1c2c(ccc3ccc(=O)oc23)OC(C)(C)[C@@H]1OC(C)=O,inactive: -15.6%,–
C=C1CCC2[C@](C)(CO)[C@H](O)CC[C@@]2(C)[C@@H]1C/C=C1\C(=O)OC[C@H]1O (stereo partly specified),inactive: -11.3%,–
O=C(CN1CCN(C(=S)NC2CCCC2)CC1)Nc1ccc(Oc2ccccc2)cc1,–,active: 16.4 µM
COc1ccc([C@H]2[C@@H]3C=CCC[C@@]3(C)C(=O)N2Cc2ccccc2)cc1Cl,inactive: -21.4%,–
CCC(C)NC(=O)Cn1ccc2cc(S(=O)(=O)N3CCCCCC3)ccc21 (stereo unspecified),inactive: -23.7%,–
Cc1ccc(NC(=O)CCCn2nc(C)c3c(C)n(-c4ccccc4)nc3c2=O)c(Cl)c1,inactive: -10.6%,–
O=S(=O)(c1ccc2c(c1)OCCO2)C1CCC(S(=O)(=O)c2c(F)cccc2F)CC1 (stereo unspecified),inactive: 1.21%,–
C[C@@H]1CC[C@@]2(O[C@H](CCO)C[C@@H](O)[C@@H]2O)O1,inactive: 1.22%,–
COc1ccccc1CN1C(=O)[C@H]2Cc3c([nH]c4ccccc34)C(C)(C)N2C1=O,inactive: -1.56%,–
C=CCC[C@H](Cc1ccc(F)cc1)C(=O)OC[C@@H](Cc1c[nH]c2ccccc12)NC(=O)[C@H](CC=C)CC(=O)NCCO,inactive: -24%,–
C=C(C1=CCN(S(=O)C(C)(C)C)[C@@H]1CCO)c1ccccc1 (stereo partly specified),inactive: -14.5%,–
CCc1cccc(NC(=O)CCC(=O)N2CCSc3ccccc32)c1,inactive: 15.7%,–
Fc1ccc(Nc2c3c(nc4ccccc24)CCC3)cc1,inactive: 5.07% [at 9.27 µM],–

SMILES,"activity change, negative = inhibition",Potency
COc1ccccc1/C=C/c1nc(C#N)c(N(C)C)o1,inactive: -15.3%,–
O=C(c1ccc2c(c1)N(Cc1ccccc1F)C(=O)c1ccccc1S2(=O)=O)N1CCCC1,inactive: -18.6%,–
C=CC(COCc1ccccc1)N(Cc1ccccc1)S(=O)(=O)c1ccccc1Br (stereo unspecified),inactive: -4.97%,–
CC(C)NC(=O)CCN1C(=O)c2ccccc2Sc2ncccc21,inactive: 0.109%,–
CCn1c(=O)cc(OCC(=O)N2CCN(c3ccc(F)cc3)CC2)c2ccccc21,inactive: -10.3%,–
CC[C@H]1c2[nH]c3ccccc3c2C[C@H]2C(=O)N(c3ccc(F)cc3)C(=O)N21,inactive: -24.6%,–
O=C(c1cc(-c2ccc(O)cc2)on1)N1CCN(c2ccccc2)CC1,inactive: -1.6%,–
Cc1cc(/C=C(/C#N)C(=O)Nc2ccccc2)c(C)n1-c1cccnc1,inactive: 13.5%,–
O=C(CCCN1C(=O)/C(=C\c2cccs2)SC1=S)NNC(=O)c1ccncc1,inactive: 2.4%,–
Nc1ccc(S(=O)(=O)Nc2ccnn2-c2ccccc2)cc1,–,inactive
Cc1ccc(NC(=O)Cn2nnc(C(=O)NCCc3ccccc3)c2N)cc1Cl,inactive: 6.16%,–
C=CC1=CCN(S(=O)C(C)(C)C)[C@H]1CCO (stereo partly specified),inactive: 20.2%,–
CCOC(=O)C1CCCN(CCC(=O)Nc2cccc(C)c2)C1 (stereo unspecified),inactive: 4.36%,–
COc1ccccc1N1CCN(C(=O)c2cc(-c3ccccc3O)on2)CC1,inactive: 10.8%,–
C[C@H](CCC(=O)O)[C@H]1CC[C@H]2[C@@H]3CC[C@@H]4C[C@H](O)CC[C@]4(C)[C@H]3C[C@H](O)[C@]12C,–,inactive
O=C(CN1C(=O)COc2ccc(S(=O)(=O)N3CCCCC3)cc21)NCc1ccc(Cl)cc1,inactive: -2.46%,–
CC(=O)c1ccc(NC(=O)c2ccc(-c3nc(CSc4ccccc4)c(C)o3)cc2)cc1,–,active: 10.3 µM
Cc1ccc(NC(=O)CSc2nc(-c3ccco3)cc(C(F)(F)F)n2)cc1C,inactive: -3.62%,–
COc1ccc(C2=Nn3c(nnc3-c3ccc(OC)cc3)SC2)cc1,inactive: 17.4%,–
CS(=O)(=O)c1ccc(CNC(=O)[C@]2(C(F)(F)F)C[C@H](CCc3ccccc3)CCCO2)cc1,inactive: -23.9%,–
C=CCC[C@@H](Cc1ccc(F)cc1)C(=O)OC[C@H](Cc1c[nH]c2ccccc12)NC(=O)[C@@H](CC=C)CC(=O)N[C@H](CO)Cc1ccccc1,inactive: -19.5%,–
COc1cccc(CNC(=O)CCS(=O)(=O)c2ccc3c(c2)CC(C)N3C(=O)C2CC2)c1 (stereo unspecified),inactive: 20.8%,–
CC(=O)N1N=C(c2cccc(NS(=O)(=O)c3ccc(C)cc3)c2)CC1c1ccco1 (stereo unspecified),–,active: 23.1 µM

SMILES,"activity change, negative = inhibition",Potency
Cn1cc(/C=C2\SC(=O)N(c3ccccc3)C2=O)c2ccccc21,inactive: 1.59%,–
CC(C)(C)OC(=O)C[C@@H]1C/C=C\C[C@H](CC(=O)N(CCO)Cc2ccccc2)C(=O)NC[C@H](c2ccccc2)OC1=O,inactive: -11%,–
CC(=O)Nc1ccc(SCC(CC(C)C)N2CCN(CC(C)C)CCC2=O)cc1 (stereo unspecified),inactive: 10.8%,–
CCOC(=O)c1cc2c(c(-c3ccccc3)n1)[C@@H](CCO)N(S(=O)(=O)C(C)(C)C)C2,inactive: -6.14%,–
COc1ccccc1N1CCN(C(=O)c2ccc3c(c2)CCN3S(=O)(=O)c2ccccc2)CC1,inactive: -2.06%,–
O=C(NCc1ccccc1)C1=C[C@@H](c2ccc(C(F)(F)F)cc2)C[C@@H](OCCCCO)O1,inactive: 2.73%,–
COc1ccc(/C=C2\CCCC3C2=NN(C(=O)COC(=O)CNC(=O)c2ccccc2)C3c2ccc(OC)cc2)cc1 (stereo unspecified),–,active: 13 µM
CCO/C=C1\C(=O)N(CC)c2ccccc21,inactive: -17.2%,–
CC(=O)Nc1ccc(Nc2nnc(-c3ccc(C)c(S(N)(=O)=O)c3)c3ccccc23)cc1,inactive: -23.6%,–
COc1ccc(N(CC(=O)N2CCN(c3ccccc3F)CC2)S(=O)(=O)c2c(C)n[nH]c2C)cc1,inactive: -9.35%,–
Oc1ccc(C[C@H]2CNCCN2CCc2cc(C(F)(F)F)cc(C(F)(F)F)c2)cc1,inactive: 7.64%,–
CCC(=O)Nc1ccc(C(=O)OCC(=O)c2ccc(C)c([N+](=O)[O-])c2)cc1,–,active: 7.31 µM
C[C@]12C(=O)N(c3cccc(F)c3)C(=O)N1[C@H]1c3ccccc3OC[C@@H]1[C@H]2c1ccccc1,inactive: -23.5%,–
CCOC(=O)c1[nH]cnc1C(=O)Nc1ccc(F)cc1,inactive: -17.4%,–
CCC(=O)Nc1nnc(S(=O)(=O)N2CCc3ccccc32)s1,inactive: -9.43%,–
COc1cc2ccnc(Cc3cccc(OC)c3OC)c2cc1OC,–,active: 3.66 µM
O=C(CN1C2CCCC1CC(NC(=O)C1CCCCC1)C2)Nc1ccccc1C(F)(F)F (stereo unspecified),–,active: 23.1 µM
O=C1NC[C@@H](c2ccccc2)OC(=O)[C@H](Cc2ccc(F)cc2)CC/C=C/C[C@H]1CC(=O)N(CCO)Cc1ccccc1,inactive: -7.42%,–
COc1ccccc1OCC(O)CN1CCN(CC(=O)Nc2c(C)cccc2C)CC1 (stereo unspecified),inactive: 4.87%,–
CCN(c1ccccc1)S(=O)(=O)c1nnc(NC(=O)c2ccco2)s1,inactive: 7.47%,–
O=C1CCCC2=C1[C@@]1(CCC(c3ccccc3)C1)N=C(Nc1nc3ccccc3o1)N2 (stereo partly specified),inactive: -25.3%,–
COC(=O)c1cc(S(=O)(=O)NCC2CCN(Cc3ccc(C)cc3)CC2)c[nH]1,inactive: -5.69%,–
